Laboratory results reported in PubChem BioAssay AID1347073 (National Center for Advancing Translational Sciences (NCATS), 2019).
The campaign covered roughly 45,000 compounds. About 200 (0.44%) were called active. Roughly 7% stayed inconclusive and do not appear here. Calls follow the shape of the dose curve; as a rule, active = well fitted activation curve with a large enough effect; inconclusive = small, poorly fitted or top-dose-only effect; inactive = no such curve, though single readings can be large or run the other way. The list shows a part of the results.

Experiment: qHTS of TDP-43 Inhibitors: NCGC Sytravon Library Screen; also: 0% is about no effect; nearly all actives have a fitted effect of over 55% in size
Details: yeast TDP-43 toxicity rescue, BacTiter-Glo growth, 24 h; series mostly up to 46.1 µM; growth rescue (activation): at the top concentration
Summary of the method: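 TDP-43-expressing yeast, pregrown in raffinose, seeded at OD600 0.02 in galactose medium with compound for 24 hr at 30 deg C. Growth read by BacTiter-Glo luminescence, so rescue of toxicity appears as activation.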

Structure (SMILES)	growth rescue (activation)
COc1cc(C(=O)Nc2ccc(S(=O)(=O)Nc3ncccn3)cc2)c([N+](=O)[O-])cc1OC	inactive: 2.68%
[O-]C(=C(C(=S)Nc1cccc2ccccc12)[n+]1ccccc1)c1ccc2c(c1)OCCO2	inactive: -11.3%
COc1ccc(CCn2c(C)nc3c(c(=O)c4ccccc4n3C)c2=O)cc1	inactive: -5.69%
CCC(=O)Nc1nc2ccc([N+](=O)[O-])cc2s1	inactive: 28%
Cc1n(-c2ccccc2)c2ccc(Cl)cc2[n+]1CCO	inactive: 3.83%
COC(=O)c1ccc(S(N)(=O)=O)o1	inactive: 0.968%
CCNC(=O)C1CCCN(C(=O)c2ccc(C)c(F)c2)CC1 (stereo not drawn)	inactive: 8.44%
O=C(CSc1nnc(-c2ccc(Cl)cc2)n1-c1ccc(Cl)cc1)N/N=C/c1ccco1	inactive: 8.66%
CCOC(=O)c1c(NC(=O)/C(C#N)=C/c2ccc(OC)cc2)sc2c1CCC2	inactive: 6.02%
COCCn1c(=O)[nH]c2cc(C(=O)Nc3cc(OC)c(OC)c(OC)c3)ccc2c1=O	inactive: 2.74%
CCOC(=O)CSc1nnc(-c2cccnc2)n1C	inactive: 1.95%
Cc1nnc(NCCc2ccccc2)c2ccccc12	inactive: 14.2%
CN1C(=O)c2ccc(NC(=O)c3cccc4ccccc34)cc2C1=O	inactive: 0.141%
CN(C=[N+](C)C)c1cccc2c1C(=O)c1ccccc1C2=O	inactive: 16.6%
Cc1cc2c(=O)n(C)c(SCC(=O)Nc3cccc(O)c3)nc2s1	inactive: -8.59%
O=C(CN1C(=O)C2CCCCC2C1=O)N1CCN(c2ccc(F)cc2)CC1 (stereo not drawn)	inactive: 4.45%
O=C(NNC(=O)c1cccnc1)c1ccncc1	inactive: 1.67%
CC(=O)c1c(C)oc2ccc(NS(=O)(=O)c3ccc(C)cc3)cc12	inactive: -3.78%
Cc1cc(/C=C2/C(=N)N3C(=NC2=O)SN=C3S(C)(=O)=O)c(C)n1-c1ccccc1F	inactive: 1.62%
CCCN1CCN(C(=O)Nc2cccc(C(F)(F)F)c2)CC1	inactive: -5.72%
Cc1ccc(/C=N/NC(=O)Nc2ccccc2)o1	inactive: 17.3%
CSc1nn(-c2ccc(C(=O)OC(C(=O)NC(N)=O)C(C)C)cc2)c(=S)s1 (stereo not drawn)	inactive: -8.26%
Cc1ccc(-c2csc(NC(=S)NC(=O)c3ccco3)n2)cc1	inactive: 18.8%

Structure (SMILES)	growth rescue (activation)
Nc1cc(N)nc(SCC(=O)N2CCc3ccccc32)n1	inactive: 16.1%
O=C(NC1CCCCCC1)C1CCN(C(=O)c2cccc(Cl)c2)CC1	inactive: 21.6%
CCc1ccc(NC(=O)Nc2ccncc2)cc1	inactive: 13.6%
CCOc1ccc(NC(=O)CN2C(=O)CSC2=O)cc1	inactive: -4.14%
Cc1ccc(CSCCC(=O)NCCc2ccc(Cl)cc2)cc1	inactive: 24.4%
O=C(NC1(C(F)(F)F)N=C(c2ccccc2)NC1=O)c1ccccc1F (stereo not drawn)	inactive: 3.43%
COc1cccc(C(Nc2ccccn2)c2c(NC(=O)c3ccco3)sc(C)c2C)c1 (stereo not drawn)	inactive: 15.2%
COc1ccc(CN2CC(C(=O)NCCCN3CCN(C)CC3)CC2=O)cc1 (stereo not drawn)	inactive: -22%
O=C(O)c1cccnc1Nc1ccc(Cl)cc1	inactive: -7.91%
Cc1c(Br)c(O)c(Br)c(O)c1/C=N/n1c(-c2ccccc2)n[nH]c1=S	inactive: 24.9%
O=C(CN1CCC(n2nnc3cc(C(F)(F)F)ccc32)CC1)Nc1ccc2c(c1)CCC2	inactive: -1.26%
O=C(COC(=O)c1ccc(NS(=O)(=O)c2ccc(Br)s2)cc1)NC1CCCC1	inactive: 2.71%
Cc1sc2ccccc2[n+]1CC(=O)O	inactive: 23.2%
CC(=O)Nc1ccc2c(COC(=O)[C@@H](NS(=O)(=O)c3ccc(C)cc3)C(C)C)cc(=O)oc2c1	inactive: -7.77%
CCS(=O)(=O)N1CCCC(C(=O)NCCCOC)C1 (stereo not drawn)	inactive: 8.88%
Cc1c(NC(=S)NC(=O)CC(C)C)c(=O)n(-c2ccccc2)n1C	inactive: -7.64%
CCC1=NN(C(=O)c2ccc(Br)cc2)C(O)(c2ccc(C)cc2)C1 (stereo not drawn)	inactive: 8.48%
Cc1ccc(N2CC(C(=O)OCC(=O)c3ccc(F)cc3)CC2=O)cc1 (stereo not drawn)	inactive: 5.91%
Cc1ccc(C(=O)NC(C)C2CC3CCC2C3)c(C)c1 (stereo not drawn)	inactive: 13.8%
Cc1csc(NC(=O)Cc2ccccc2[N+](=O)[O-])n1	inactive: 3.16%
CC(=O)c1cccc(NC(=O)CCS(=O)(=O)c2ccc3c(c2)n(C)c(=O)c(=O)n3C)c1	inactive: 12.2%
O=C(CSc1nc2ccc(Cl)cc2[nH]1)c1c[nH]c2ccccc12	inactive: 4.11%
COc1ccc(CNC(=O)CN(Cc2ccc(OC)cc2)C(=O)CCC(=O)Nc2ccccn2)cc1	inactive: -4.04%

Structure (SMILES)	growth rescue (activation)
CCCOC(=O)C1[C@H]2C(=O)N(C(C)c3ccc(OC)cc3)C[C@]23C=C[C@H]1O3 (stereo partly drawn)	inactive: 2.07%
COc1cccc(C2C(C(=O)c3cccs3)=C(O)C(=O)N2CCN2CCOCC2)c1OC (stereo not drawn)	inactive: 9.76%
CCOc1ccc(Br)cc1S(=O)(=O)NC(=O)c1ccccc1	inactive: -3.13%
O=Cc1ccc(C(=O)OCC(=O)NCc2ccco2)cc1	inactive: 15.1%
COc1ccc(C(=O)/C(=C\c2ccco2)N2C=CC=CC2=C(C#N)C#N)cc1	inactive: 25.6%
COCCN1Cc2cccc(C(=O)NCC3CCN(CC(C)C)C3)c2C1=O (stereo not drawn)	inactive: 2.77%
CCOC(=O)N1CCN(C(=S)NC(=O)C23CC4CC(CC(C4)C2)C3)CC1	inactive: 12.4%
CC(C)c1cc(C(=O)NCc2ccc(F)cc2)no1	inactive: 16.3%
O=C(N/N=C1\SCC(=O)N1CCc1ccccc1)c1cccs1	inactive: -12.7%
COc1ccc(OCC(=O)N2c3ccccc3CCc3ccccc32)cc1	inactive: 6.51%
Cc1ccc(S(=O)(=O)Cn2nnnc2C(C(C)C)N2CCC(O)CC2)cc1 (stereo not drawn)	inactive: 12.4%
O=C(COc1cccc(-n2cnnn2)c1)Nc1ccc([N+](=O)[O-])cc1	inactive: 9.72%
O=C(OCC(=O)N1CCOCC1)c1ccc(F)cc1Cl	inactive: 0.59%
CCOc1ccc(C(C(=O)NCCOC)N(CCOC)C(=O)CCC(=O)Nc2ccccn2)cc1 (stereo not drawn)	inactive: 5.78%
CN(Cc1ccc(Cl)cc1)C(=O)c1ccc2ccccc2n1	inactive: 28%
CCOc1ccc(NC(=O)C2CCC(CNc3c(N4CCC(C)CC4)c(=O)c3=O)CC2)cc1 (stereo not drawn)	inactive: 16.3%
N#CCCN(C(=O)COC(=O)c1ccc(CNS(=O)(=O)c2ccc(F)c(Cl)c2)cc1)c1ccc(F)cc1	inactive: 6.8%
COc1cc(/C=N/N(CCO)C2=NS(=O)(=O)c3ccccc32)cc(OC)c1OC	inactive: 6.81%
COc1ccc(S(=O)(=O)NCC2CCCO2)cc1NC(=O)c1ccccc1 (stereo not drawn)	inactive: 6.43%
CC(C)(C)SCCNC(=O)/C=C/c1ccc([N+](=O)[O-])cc1	inactive: 31%
Cc1ccc(S(=O)(=O)N2CCC(c3nc4c(nnn4Cc4ccccc4)c(=O)[nH]3)CC2)cc1	inactive: 15.5%
CC(=O)c1ccc2c(c1)C1C=CCC1C(c1ccc(S(=O)(=O)N3CCOCC3)cc1)N2 (stereo not drawn)	inactive: 8.27%
